This test concerns the target Tb-chelate labeled anti-pSer133 antibody. In words: TR-RET titration of the tracer against the Tb-labeled antibody.

Square brackets hold non-standard residues; d marks the D form. Ends that are not written are not given here. pS = N[C@@H](COP(=O)(O)O)C(=O)O

The molecule LRREILSRRP[pS]YRK-Fluorescein [Tracer 4: …(pS)YRK-Fluorescein] had a fold change in TR-RET value between free and bound forms of 32 fold.

The record behind these values is US20080138836A1, “KINASE AND UBIQUINATION ASSAYS” (INVITROGEN CORPORATION, priority 2006, published 2008).
